Test results as given in PubChem BioAssay AID504332 (National Center for Advancing Translational Sciences (NCATS), 2011).
Among all 350,000 compounds or so, about 31,000 (8.9%) were called active. The inconclusive results got no clear call from the source; some entries with a clear call stand among them for comparison. Calls follow the shape of the dose curve; as a rule, active = well fitted inhibition curve with a large enough effect; inconclusive = small, poorly fitted or top-dose-only effect; inactive = no such curve, though single readings can be large or run the other way. Potencies beside an inconclusive call are fits to weak or partial responses and may not hold up.

What follows are compounds tested against Histone-lysine N-methyltransferase EHMT2 (Homo sapiens) (UniProt Q96KQ7) (assay: qHTS Assay for Inhibitors of Histone Lysine Methyltransferase G9a). Conditions: G9a H3K9 monomethylation, AlphaScreen, 2 h; activity, negative = inhibition: at 59 µM (top of the series) unless noted.
Outline: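 Chemiluminescent proximity detection of H3K9 monomethylation, read after 10 min bead incubation in the dark. Reaction: 20 nM G9a, 500 nM biotin-H3K9 peptide, 20 uM SAM cofactor, 2 h, room temperature, following 15 min enzyme-compound preincubation.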
% is scaled to controls: 0 for no effect and ±100 for the full control effect; potency is read from the fitted curve at half-maximal effect; tags tell the direction and shape of the fitted curve.
Also: nearly all actives have a fitted effect of over 75% in size.

Sequence of UniProt Q96KQ7 (Q96KQ7 whole entry, looked up): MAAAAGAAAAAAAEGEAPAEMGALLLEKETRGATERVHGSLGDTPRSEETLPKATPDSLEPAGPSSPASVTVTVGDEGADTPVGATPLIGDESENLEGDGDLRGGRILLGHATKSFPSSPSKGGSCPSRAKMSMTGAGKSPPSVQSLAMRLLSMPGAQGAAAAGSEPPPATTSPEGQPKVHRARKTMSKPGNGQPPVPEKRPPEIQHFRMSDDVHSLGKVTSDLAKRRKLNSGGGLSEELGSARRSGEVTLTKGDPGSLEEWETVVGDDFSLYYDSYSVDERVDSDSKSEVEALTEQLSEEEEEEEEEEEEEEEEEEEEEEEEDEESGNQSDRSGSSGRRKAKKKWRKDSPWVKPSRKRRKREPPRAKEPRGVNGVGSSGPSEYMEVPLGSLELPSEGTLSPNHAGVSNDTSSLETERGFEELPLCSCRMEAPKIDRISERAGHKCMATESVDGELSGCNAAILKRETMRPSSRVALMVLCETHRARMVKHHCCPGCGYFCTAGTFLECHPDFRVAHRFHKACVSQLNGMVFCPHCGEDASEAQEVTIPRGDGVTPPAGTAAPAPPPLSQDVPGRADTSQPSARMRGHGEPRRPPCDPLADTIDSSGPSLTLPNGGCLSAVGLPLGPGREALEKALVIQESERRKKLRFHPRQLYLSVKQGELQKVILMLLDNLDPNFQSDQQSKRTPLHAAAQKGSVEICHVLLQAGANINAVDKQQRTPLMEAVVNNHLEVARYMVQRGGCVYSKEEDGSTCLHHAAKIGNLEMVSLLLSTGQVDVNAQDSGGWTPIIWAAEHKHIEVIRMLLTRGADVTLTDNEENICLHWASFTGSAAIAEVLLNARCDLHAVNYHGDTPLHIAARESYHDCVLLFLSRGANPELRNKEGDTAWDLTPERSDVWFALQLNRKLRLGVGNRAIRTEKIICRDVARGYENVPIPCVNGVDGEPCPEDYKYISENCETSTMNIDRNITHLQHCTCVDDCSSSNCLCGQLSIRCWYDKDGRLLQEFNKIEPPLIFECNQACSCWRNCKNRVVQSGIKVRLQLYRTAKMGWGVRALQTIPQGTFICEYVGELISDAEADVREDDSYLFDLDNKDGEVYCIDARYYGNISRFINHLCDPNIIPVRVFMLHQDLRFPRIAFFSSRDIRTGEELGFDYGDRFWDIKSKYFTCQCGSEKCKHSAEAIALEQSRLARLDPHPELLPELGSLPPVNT

Q: How did the Potency turn out when `c1ccc(C(c2nnnn2C2CCCCC2)N2CCc3ccccc3C2)nc1` (configuration not stated) was run?
A: active: 7.94 µM

Q: With `Oc1ccc2ccccc2c1-c1sc(Nc2ccccc2)n[n+]1-c1ccc(F)cc1` as the compound, how does the Potency read?
A: active: 39.8 µM

Q: How did the Potency turn out when `O=C(N1CCN=C1SCc1cccnc1)C12CC3CC(CC(C3)C1)C2` was run?
A: inconclusive: 10 µM [inhibitor, partial curve, poor fit]

Q: How did the Potency turn out when `O=C(c1cccnc1)N1CCN(S(=O)(=O)c2ccc(S(=O)(=O)N3CCCC3)cc2)CC1` was run?
A: inconclusive: 0.631 µM [inhibitor, partial curve, poor fit]

Q: Which Potency does the source give for `S=C(NNc1ccc2ccccc2c1)NC1CCCCC1` here?
A: active: 11.2 µM

Q: `CCOC(=O)N1CCN(C(=O)c2ccc3c(c2)sc2nc(-c4ccccc4)cn23)CC1` was tested. Which Potency did it give?
A: inconclusive: 11.2 µM [inhibitor, partial curve, poor fit]

Q: Which “activity, negative = inhibition” value does the source give for `CCOC(=O)c1noc(C)c1C(=O)Nc1nc(C)cc(C)n1` here?
A: inactive: -26.2% [at 102 µM]

Q: How did the Potency turn out when `NC(=O)NNc1ncc(C(F)(F)F)cc1Cl` was run?
A: inconclusive: 70.8 µM [inhibitor, partial curve, poor fit]

Q: For `CC(=O)c1sc(NC(=O)C2(F)C(F)(F)C(F)(F)C(F)(F)C(F)(F)C2(F)F)nc1C`, which Potency is on record?
A: inconclusive: 20 µM [inhibitor, partial curve, poor fit]

Q: Which Potency does the source give for `O=C(CSc1nnc(-c2cccs2)o1)Oc1ccccc1` here?
A: inconclusive: 39.8 µM [inhibitor, partial curve, poor fit]

Q: For `Oc1ccc(N=Nc2cccc(Cl)c2)cc1C=Nc1ccc(N2CCOCC2)cc1`, which Potency is on record?
A: inconclusive: 3.16 µM [inhibitor, full curve, poor fit]

Q: For `Cc1cc(-c2ccccc2)nc2[nH]n(-c3ccccc3)c(=O)c12`, which Potency is on record?
A: inconclusive: 79.4 µM [inhibitor, single point]

Q: For `CCCCC(=O)N(Cc1ccc(-c2ccccc2-c2nn[nH]n2)cc1)C(C(=O)O)C(C)C` (configuration not stated), which activity, negative = inhibition is on record?
A: inactive: -3.48% [at 2.33 µM]

Q: `COc1ccc(-c2nc(CS(=O)CC(=O)NC3CCCC(C)C3C)c(C)o2)cc1OC` (configuration not stated) was tested. Which Potency did it give?
A: active: 56.2 µM

Q: With `CCOc1ccc(Nc2ncnc3ccc([N+](=O)[O-])cc23)cc1` as the compound, how does the “activity, negative = inhibition” value read?
A: inactive: -26% [at 102 µM]

Q: `CCN(CC)CCCNC(=O)c1ccc(-c2nc(CN3CCc4ccccc43)c(C)o2)cc1` was tested. Which Potency did it give?
A: inconclusive: 28.2 µM [inhibitor, single point]

Q: For `O=c1[nH]nc(SCc2ccccc2)c(=O)[nH]1`, which Potency is on record?
A: inconclusive: 1.41 µM [inhibitor, partial curve, poor fit]

Q: With `Cc1nn(Cc2ccccc2)c(C)c1NC(=O)CSc1n[nH]c(C)c1[N+](=O)[O-]` as the compound, how does the Potency read?
A: inconclusive: 89.1 µM [inhibitor, single point]

Q: Which Potency does the source give for `Cn1cccc1Cc1nnc(SCC(=O)Nc2ccc3c(c2)OCO3)n1CCc1ccccc1` here?
A: active: 39.8 µM

Q: Which Potency does the source give for `CCOC(=O)C1C(c2ccc(O)c(OC)c2)NC(=S)NC1(O)C(F)(F)F` (configuration not stated) here?
A: inconclusive: 89.1 µM [inhibitor, single point]

Q: With `COc1cnn(Cc2ccccc2)c(=O)c1SCc1ccccc1` as the compound, how does the “activity, negative = inhibition” value read?
A: inactive: -5.33%

Q: How did the Potency turn out when `CCCN1CCN(S(=O)(=O)c2ccc(OC)c(Br)c2)CC1` was run?
A: inconclusive: 56.2 µM [inhibitor, partial curve, poor fit]

Q: For `CC1(C)CC(=O)C2=C(C1)OC(/N=C/N1CCOCC1)=C(C#N)C2c1ccccc1` (configuration not stated), which Potency is on record?
A: inconclusive: 89.1 µM [inhibitor, partial curve, poor fit]

Q: For `CCc1ccc(-n2cnc3cc(C(=O)NCc4ccc(C)cc4)ccc32)cc1`, which Potency is on record?
A: inconclusive: 20 µM [inhibitor, partial curve, poor fit]

Q: How did the Potency turn out when `O=C1OCCC1Sc1nc2ccccc2s1` (configuration not stated) was run?
A: inconclusive: 31.6 µM [inhibitor, single point]

Q: Which Potency does the source give for `O=C1NC(Nc2nc3ccccc3s2)(C(F)(F)F)C(=O)N1C1CCCCC1` (configuration not stated) here?
A: inconclusive: 79.4 µM [inhibitor, single point]

Q: Which “activity, negative = inhibition” value does the source give for `O=C(Nc1ccc(F)cc1Cl)C1CCN(C(=O)Nc2ccccc2)CC1` here?
A: inactive: -12.5% [at 102 µM]

Q: With `Cc1ccc(-n2c3c(cc(C(=O)NCCCN4CCOCC4)c2=O)C(=O)CC(C)(C)C3)cc1` as the compound, how does the Potency read?
A: inconclusive: 17.8 µM [inhibitor, partial curve, poor fit]

Q: Which Potency does the source give for `Cc1cccc(NC(=S)NC(=O)c2ccco2)c1C` here?
A: inconclusive: 79.4 µM [inhibitor, single point]

Q: With `CCc1ccc(S(=O)(=O)NCCc2cn3cccc(C)c3n2)s1` as the compound, how does the Potency read?
A: inconclusive: 89.1 µM [inhibitor, partial curve, poor fit]

Q: How did the Potency turn out when `O=C(NNS(=O)(=O)c1ccc(Br)cc1)c1csnn1` was run?
A: active: 50.1 µM

Q: `COc1ccc(CNC(=O)c2cc3cccc(O)c3oc2=N)cc1` was tested. Which Potency did it give?
A: inconclusive: 56.2 µM [inhibitor, single point]

Q: For `CCC(C)(C)n1nnnc1C(c1ccc(OC)cc1)N1CCN(C(=O)c2ccco2)CC1` (configuration not stated), which “activity, negative = inhibition” value is on record?
A: inactive: 16.1% [at 102 µM]

Q: How did the Potency turn out when `Cc1cc(C)cc(NCc2cc3c(cc2[N+](=O)[O-])OCO3)c1` was run?
A: active: 44.7 µM

Q: How did the Potency turn out when `COc1ccc(OC)c(NC(=O)CSc2nnc3ccc4ccccc4n23)c1` was run?
A: inconclusive: 10 µM [inhibitor, partial curve, poor fit]

Q: With `COc1ccccc1C(=O)NC(CCSC)C(=O)NCC(c1ccccc1OC)N1CCCC1` (configuration not stated) as the compound, how does the Potency read?
A: inconclusive: 79.4 µM [inhibitor, partial curve, poor fit]

Q: `O=C(O)[C@@H]1Cc2c([nH]c3ccccc23)C2CCC(=O)N21` (some centres not stated) was tested. Which Potency did it give?
A: inconclusive: 50.1 µM [inhibitor, partial curve, poor fit]

Q: `O=C(O)CSCC(=O)NCc1ccc(Cl)cc1` was tested. Which Potency did it give?
A: inconclusive: 44.7 µM [inhibitor, partial curve]

Q: `Cc1noc(C)c1S(=O)(=O)NCCN1CCN(c2ccccc2)CC1` was tested. Which “activity, negative = inhibition” value did it give?
A: inactive: -1.89%

Q: Which Potency does the source give for `COc1ccc(-c2n[nH]c(=S)o2)c(OC)c1` here?
A: inconclusive: 1.58 µM [inhibitor, full curve, poor fit]

Q: Which Potency does the source give for `Cc1c(NC(=O)Nc2cccs2)cccc1[N+](=O)[O-]` here?
A: inconclusive: 44.7 µM [inhibitor, partial curve]

Q: Which Potency does the source give for `CC(N=Cc1nc(-c2ccccc2)oc1O)c1ccccc1` (configuration not stated) here?
A: inconclusive: 39.8 µM [inhibitor, single point]
